# Experimental data: ChEMBL document CHEMBL4888484, “Replenishing the malaria drug discovery pipeline: Screening and hit evaluation of the MMV Hit Generation Library 1 (HGL1) against asexual blood stage Plasmodium falciparum ,using a nano luciferase reporter read-out” (2022)
# About 540 (0.36%) of roughly 150,000 compounds showed an effect of 50% or more. The list shows a part of the results.
# Tested on: Plasmodium falciparum
# Experiment: Primary screen in NF54 nanoGlo assay, in single point, at 2uM, 72h; a lower Z score goes with more inhibition
# Assay type: functional, Erythrocyte
# Conditions: timepoint 72 hour
Compound,% Inhibition [%],Z score
CCCO/C(=N/C(=O)c1ccc2c(c1)OCO2)NCC(C)C,3,-0.44
CCN=C(NCCc1cnn(C)c1C)NCc1cccnc1N(C)C,-6,0.83
Cn1nccc1-c1cc(F)cc2cccnc12,-1,0.21
C[C@@H](c1ccccn1)N(C)S(=O)(=O)c1cccc2nsnc12,-14,1.91
CC(=O)N(Cc1ccc(F)cc1)C(C)(C)C,-6,0.8
O=C1NCCc2ccc(cc2)OCCCn2cc(nn2)CC12CCN(Cc1cnc(N3CCCC3)s1)CC2,-7,0.95
Cc1cc(F)ccc1[C@H]1C(=O)NCCN1Cc1csc(C(C)(C)C)n1,-8,1.3
CC(C)(C)OC(=O)N1CCC12CCN(C(=O)c1cccnc1)CC2,-13,1.58
CN(CC1CCCCC1)C(=O)[C@@H]1CCCO1,-6,0.76
CCCCS(=O)(=O)NCCc1ccc(C(=O)O)cc1,-6,0.85
Nc1c(F)cc(Cl)cc1C(=O)N1CCC(OC2CCCCC2)CC1,0,0.05
Cc1ccsc1CN1CCn2c(nnc2[C@@H]2C[C@H](O)CN2C(C)C)C1,-2,0.39
Cn1nccc1C1CC(NS(=O)(=O)CC2CCCC2)CCO1 (stereo not drawn),-9,1.64
Cc1cccc(C(=O)NCC[C@H]2CCCNC2)c1F,-3,0.49
O=C(NC1CCC(CC2CCC(NC(=O)c3sc4cc(F)ccc4c3Cl)CC2)CC1)c1sc2cc(F)ccc2c1Cl (stereo not drawn),-2,0.3
COc1cccc2c(C)cc(=O)n(CC(=O)N3CCc4ccccc4C3)c12,-5,0.59
O=C(CCc1cn[nH]c1)N1CCC(c2cscn2)CC1,-4,0.83
Cc1cc([C@H](C)NCc2ccc3c(n2)CCCC3)c(C)o1,2,-0.31
O=C(NCc1c(F)c(F)cc(F)c1F)NC1CC=CC1,-8,0.94
Cc1cccc(Cn2ncc(C)c2NC(=O)[C@@H]2CCCCCN2C)c1,-13,1.37
C[C@H]1CCCCN1C(=O)CCn1ccccc1=O,13,-1.32
Cn1cccc1C(=O)N1CC[C@H](c2nc(-c3ccccc3)no2)C1,-6,0.92
Cc1nc(-c2ccc3[nH]c(=O)[nH]c3c2)cs1,32,-1.01
COC(=O)c1nc2nc(C)cc(C)n2c1F,-1,0.15
CNC(=O)c1cccc(C(=O)Nc2ccc(F)cc2NC2CC2)c1,-5,0.79
CC(C)C[C@@H](CO)NC(=O)NC1CCC(F)(F)CC1,-14,2.57
NC(=O)N1CCC[C@H]1C(=O)N1CCc2ccccc2C1,-4,0.81

Compound,% Inhibition [%],Z score
CN(Cc1cccc(F)c1)C(=O)c1ccc(S(=O)(=O)N2CCOCC2)cc1,-4,0.73
Cc1cc(NC(=O)CN2CCCC[C@@H]2Cn2cncn2)on1,-7,1.04
Cc1cc(C)cc(Nc2nc3ccncc3n(Cc3ccccc3)c2=O)c1,3,-0.28
CN(Cc1cccc(NS(=O)(=O)c2ccccc2)c1)C[C@]1(O)CCCOC1,-3,0.52
CCN(C)c1cccc(NC(=O)N(C)C[C@H](C)C(=O)NC)c1,-15,1.54
CCc1ccc(CNC(=O)[C@@H]2CCCCc3nn(Cc4cccc(F)c4)c(=O)n32)cc1,-4,0.37
NC(=O)CCn1ccc(NCc2cccc3cn[nH]c23)n1,-6,0.89
Cc1ccc(Cl)cc1N1CCN(C(=O)c2cc(-c3cccc4ccccc34)[nH]n2)CC1,-12,2.38
N[C@@H]1CCN(C(=O)c2ccc(Oc3ccc(F)c(F)c3)cc2)C1,-9,0.91
Cc1noc(-c2cccc(C(F)(F)F)c2)c1C(=O)NCCCN(C)c1ccccc1,-6,0.78
CC(C)c1cc(C(=O)Nc2ccc(Cl)cc2)nc2ccnn12,10,-1.62
COc1ccc(CCc2n[nH]c(NC(=O)CCc3c[nH]c4ccccc34)n2)cc1OC,36,-5.88
CO[C@H]1CCCOC12CCN(C(=O)CCc1scnc1C)CC2,-8,1.44
CCc1nc(C)c(C(=O)N(C)Cc2cc[nH]n2)s1,5,-0.85
COCc1nn2cc(C(=O)c3ccc(OC)c(OC)c3)nnc2c1-c1ccccc1,8,-1.29
O=C(CCn1cnnn1)N1CCC2(CC1)CC(=O)N(Cc1ccccc1)C2,-4,0.6
Cc1csc(C(C)(C)NC(=O)Nc2nnc3ccccn23)n1,-4,0.58
C/C(=N\c1ccc(C2CCCC2)cc1)Nc1ccc(C2CCCC2)cc1,-3,0.53
C[C@@H](c1ccncn1)N(C)Cc1ccc(C2CCCC2)s1,-10,1.12
O=C1C[C@H](Cc2ccc(F)cc2)C(=O)N1CCCn1ccnc1,-11,1.7
CC(=O)c1ccc(N2CC[S+]([O-])CC2)nc1,32,-1.13
CC(C)C[C@H](CNC(=O)[C@H]1CCCO1)CC(=O)OC1CCOC1 (stereo partly drawn),-8,1.11
CNC(=O)[C@@H]1CN(S(=O)(=O)c2ccc(Cl)s2)C[C@H]1c1nc(C)n[nH]1,-2,0.24
COc1cccc(-c2nccn2[C@@H](C)c2csc(C)n2)c1OC,-4,0.8
C=CCOC[C@@H](O)CN(Cc1c(-c2ccccc2)nn(C)c1Oc1ccc(Cl)cc1)C1CC1,-3,0.35
Cc1cccc(C)c1NC(=O)C1CCN(S(=O)(=O)c2ccc3c(c2)nc(C)n3C2CCCC2)CC1,-13,2.36
Cc1ccc(Cl)c(S(=O)(=O)Nc2nonc2C)c1,-5,1.05
